Source: publication PMC8115694, “Distinct axial and lateral interactions within homologous filaments dictate the signaling specificity and order of the AIM2-ASC inflammasome” (Nature Communications, 2021)

Target: the molecule itself
Assay: FRET or BRET; polymerization assay: 2 uM FRET mix (donor- and acceptor-labelled) of MBP-tagged AIM2^PYD or ASC^PYD with TEVp in a 384-well plate, with or without dsDNA-bound AIM2^FL or precleaved ASC^FL

B1: ASC^PYD ([…]), fluorophore-labelled (domain or fragment)
chain: not shown
modifications: fluorophore label (Alexa488 or Dylight550; FRET donor or acceptor), site not stated
notes: ASC (apoptosis-associated speck-forming protein containing CARD), human, pyrin domain, […]; also called MBP-ASC^PYD; source: MBP cleaved with TEVp in the assay; not shown: MBP, N-terminal, cleaved
binding result: binds
